PubChem BioAssay AID686979 (National Center for Advancing Translational Sciences (NCATS), 2013)
In all, about 420,000 compounds went through this assay and about 50,000 (12%) were called active. This list was built around the results that the source calls inconclusive (neither active nor inactive); the mix of calls is not that of the screen. The call rests on the fitted dose curve; in most records, active means well fitted inhibition curve with a large enough effect; inconclusive means small, poorly fitted or top-dose-only effect; inactive means flat fitted curve, though single readings scatter. No potency is given beside an inconclusive call; the fits are too rough.

assay: qHTS for Inhibitors of human tyrosyl-DNA phosphodiesterase 1 (TDP1): qHTS in cells in presence of CPT; settings: chicken DT40 Tdp1-/-;hTDP1 cells + 20 nM CPT, ATP luminescence, 48 h; series mostly up to 46.2 µM; further: nearly all actives have a fitted effect of over 55% in size
In short: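 Chicken DT40 Tdp1-/- cells complemented with human TDP1, 400 cells/well, exposed to compounds plus 20 nM camptothecin for at least 48 h at 37 C; viability read as ATP content by CellTiter-Glo luminescence.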
Potency means the concentration at half of the fitted maximal effect; tags describe the fitted curve by direction and shape.

**Q.** With CCOC(=O)C1=CCC(c2cccc3ccccc23)N(S(=O)(=O)c2ccc(C)cc2)C1 (configuration not stated) as the compound, how does the Potency read?
**A.** active: 14.6 µM

**Q.** Which Potency does the source give for CCN(CC)C(CNC(=O)CSc1nnnn1-c1c(C)cccc1C)c1ccco1 (configuration not stated) here?
**A.** inconclusive [inhibitor, single point]

**Q.** Which Potency does the source give for CCC1CCCCN1S(=O)(=O)c1ccc(NC(=O)c2ccncc2)cc1 (configuration not stated) here?
**A.** active: 16.4 µM

**Q.** For CCc1nnc2n1N=C(c1ccc(Br)cc1)CS2, which Potency is on record?
**A.** inactive

**Q.** For CCc1ccc(Nc2ccc(S(=O)(=O)N3CCOCC3)cc2[N+](=O)[O-])cc1, which Potency is on record?
**A.** inconclusive [inhibitor, partial curve]

**Q.** Which Potency does the source give for Cc1ccccc1S(=O)(=O)N1CCN(c2ccc3c(c2)C2CC3CCN2C(=O)OCc2ccccc2)CC1 (configuration not stated) here?
**A.** inconclusive [inhibitor, single point]

**Q.** Which Potency does the source give for Nc1c(NC=O)c(=O)n(Cc2ccccc2)c(=O)n1Cc1ccccc1 here?
**A.** inactive

**Q.** Which Potency does the source give for Cc1ccc(C(=O)CCC(=O)Nc2ccc(Cl)c(S(=O)(=O)Nc3cccc(Cl)c3)c2)cc1 here?
**A.** inactive

**Q.** For CCCCC(=O)Nc1ccc(NC(=S)NC(=O)CC)cc1OC, which Potency is on record?
**A.** inconclusive [inhibitor, partial curve, poor fit]

**Q.** Which Potency does the source give for Cc1csc(SCC(=O)Nc2nc(-c3ccccc3)cs2)n1 here?
**A.** inconclusive [inhibitor, single point]

**Q.** For O=C(CCCn1c(=O)[nH]c2ccsc2c1=O)N1CCCCC1, which Potency is on record?
**A.** inactive

**Q.** With COc1ccc(CC2(C)OC(c3ccc(Cl)cc3)=NN2C(C)=O)cc1 (configuration not stated) as the compound, how does the Potency read?
**A.** inconclusive [inhibitor, single point]

**Q.** Which Potency does the source give for COc1ccc(OC)c(Nc2ncnc3c2cnn3-c2ccc(C)cc2)c1 here?
**A.** inconclusive [inhibitor, single point]

**Q.** With CC(=O)C(=Cc1ccc(Cl)cc1)C(=O)c1ccccc1 as the compound, how does the Potency read?
**A.** active: 18.4 µM

**Q.** For COc1ccc(-c2noc(CN3CCN(c4cccc(Cl)c4)CC3)n2)cc1, which Potency is on record?
**A.** inconclusive [inhibitor, single point]

**Q.** With COc1ccccc1-c1cc(NC=O)c2ncc(-c3cccc(C(F)(F)F)c3)n2c1 as the compound, how does the Potency read?
**A.** inconclusive [inhibitor, single point]

**Q.** With COc1ccc(OC(=O)c2cnn(-c3ccccc3)c2C)cc1 as the compound, how does the Potency read?
**A.** inactive

**Q.** Which Potency does the source give for COc1ccc(-c2noc(CCC(=O)Nc3cccnc3)n2)cc1 here?
**A.** inconclusive [inhibitor, single point]

**Q.** For Cc1ccc(/C=C/C(=O)N2CCCC(C)C2)cc1 (configuration not stated), which Potency is on record?
**A.** inactive

**Q.** For O=C(C1CCC1)N1CCCc2cc(S(=O)(=O)Nc3ccc(F)cc3)ccc21, which Potency is on record?
**A.** inconclusive [inhibitor, single point]

**Q.** With Cc1ccc(NS(=O)(=O)c2c(C)nc3sccn3c2=O)cc1C as the compound, how does the Potency read?
**A.** inconclusive [inhibitor, single point]

**Q.** Which Potency does the source give for NS(=O)(=O)c1ccc(NC(=O)C(=O)NCCC(=O)O)cc1 here?
**A.** inactive

**Q.** Which Potency does the source give for O=C(c1ccc(=O)oc1)N1CCN(C(c2ccccc2)c2ccccc2)CC1 here?
**A.** inconclusive [inhibitor, single point]

**Q.** Which Potency does the source give for CCOc1ccc(CC(=O)NC2CC(=O)N(c3ccc(C)c(C)c3)C2)cc1 (configuration not stated) here?
**A.** inactive

**Q.** With COc1ccccc1N(CC(=O)Nc1ccc(C)c(Cl)c1)S(=O)(=O)c1ccc(C)cc1 as the compound, how does the Potency read?
**A.** active: 20.6 µM

**Q.** With c1ccc2c(Nc3nc(-c4ccncc4)nc4ccccc34)cccc2c1 as the compound, how does the Potency read?
**A.** inconclusive [inhibitor, single point]

**Q.** With CC(=O)N1c2ccccc2C(=O)C1N1CCN(c2cccc(C(F)(F)F)c2)CC1 (configuration not stated) as the compound, how does the Potency read?
**A.** inconclusive [inhibitor, single point]

**Q.** Which Potency does the source give for C/C(=N\NC(=S)NCc1ccccc1)c1ccc(C)o1 here?
**A.** inconclusive [inhibitor, single point]

**Q.** For CC(=O)Nc1ccc(NC(=O)C2CC(=O)N(C(C)C)C2)cc1 (configuration not stated), which Potency is on record?
**A.** inactive

**Q.** Which Potency does the source give for CNC(=S)/N=C/NOCc1ccc(Cl)cc1Cl here?
**A.** inconclusive [inhibitor, single point]

**Q.** For CC(=O)N1CCc2cc(Br)cc(S(=O)(=O)N3CCN(c4cc(C)ccc4C)CC3)c21, which Potency is on record?
**A.** inactive

**Q.** With CC(=O)N1Cc2ccccc2C(C)CC12CCCCC2 (configuration not stated) as the compound, how does the Potency read?
**A.** inconclusive [inhibitor, single point]

**Q.** For O=C(Nc1nc(-c2ccc(Cl)cc2)cs1)NC1CCCCC1, which Potency is on record?
**A.** inconclusive [inhibitor, single point]

**Q.** Which Potency does the source give for CNC(=O)c1cc2ncc(C(F)(F)F)cc2s1 here?
**A.** inactive

**Q.** With CC(=O)NCCn1c(SCC(=O)c2ccccc2)nc2ccccc2c1=O as the compound, how does the Potency read?
**A.** inconclusive [inhibitor, partial curve]

**Q.** Which Potency does the source give for O=C(NC1CCCC1)c1nc(-c2c(F)cccc2F)oc1-c1ccccc1 here?
**A.** inconclusive [inhibitor, single point]

**Q.** Which Potency does the source give for Cc1cccc(CNC(=O)CCCN2C(=O)CCn3nc(-c4cn(C)c5ccccc45)cc32)c1 here?
**A.** active: 23.1 µM

**Q.** Which Potency does the source give for Cn1cc(-c2cc3n(n2)CCC(=O)N3CC(=O)O)c2ccccc21 here?
**A.** inactive

**Q.** Which Potency does the source give for COc1ccc(OC)c(S(=O)(=O)N2CCC(C(=O)N3CCCCCC3)CC2)c1 here?
**A.** inactive

**Q.** For OCc1nc2ccccc2n1Cc1c(F)cccc1Cl, which Potency is on record?
**A.** inconclusive [inhibitor, single point]

**Q.** For Cc1cc(C)c(C)c(S(=O)(=O)Nc2ccc(C(=O)N3CCCC3)cc2)c1C, which Potency is on record?
**A.** inconclusive [inhibitor, partial curve, poor fit]

**Q.** Which Potency does the source give for CCc1c(C)nc(SCC(=O)c2cccs2)c(C#N)c1C here?
**A.** inconclusive [inhibitor, single point]

**Q.** For Cc1ccccc1OCC(=O)N(Cc1ccc(N(C)C)cc1)CC1CCCO1 (configuration not stated), which Potency is on record?
**A.** inconclusive [inhibitor, single point]

**Q.** Which Potency does the source give for O=C(CSc1nnc(SCc2cccc3ccccc23)s1)N/N=C/c1c[nH]c2ccccc12 here?
**A.** inconclusive [inhibitor, single point]

**Q.** Which Potency does the source give for CCC(C(=O)NCc1ccco1)n1nc(-c2ccc(OC)cc2)ccc1=O (configuration not stated) here?
**A.** inconclusive [inhibitor, single point]

**Q.** For Cn1c(=O)c2c(nc(NC3CCCC3)n2C)n(C)c1=O, which Potency is on record?
**A.** inconclusive [inhibitor, single point]

**Q.** With O=C(CCN1CCOCC1)N1CCCC(Nc2cccc(F)c2)C1 (configuration not stated) as the compound, how does the Potency read?
**A.** inactive

**Q.** With CC/C(=N\NC(=O)CCC(=O)NCc1ccccc1)c1ccc(O)cc1 as the compound, how does the Potency read?
**A.** active: 2.91 µM

**Q.** For Cc1ccc2cc(C(c3nnnn3CC3CCCO3)N3CCc4ccccc4C3)c(=O)[nH]c2c1 (configuration not stated), which Potency is on record?
**A.** inactive

**Q.** Which Potency does the source give for O=S(=O)(Nc1ccc(N=Nc2ccccc2)cc1)c1ccccc1 here?
**A.** inconclusive [inhibitor, single point]

**Q.** With COc1ccc(C(OCC(O)CNCCc2ccccc2)c2ccc(OC)cc2)cc1 (configuration not stated) as the compound, how does the Potency read?
**A.** active: 23.1 µM

**Q.** With COC(=O)c1cnc(Nc2nc(C(N)Cc3ccc(Cl)cc3)cs2)nc1C(F)(F)F (configuration not stated) as the compound, how does the Potency read?
**A.** inconclusive [inhibitor, single point]

**Q.** Which Potency does the source give for C=CCn1c(NCc2ccccc2O)nc2ccccc21 here?
**A.** inconclusive [inhibitor, single point]

**Q.** Which Potency does the source give for O=C(N/N=C/c1ccsc1)c1cc2ccccc2o1 here?
**A.** inactive

**Q.** Which Potency does the source give for COc1ccccc1NC(=O)N(C)C[C@H]1Oc2ncc(C#CCN(C)C)cc2C(=O)N([C@H](C)CO)C[C@H]1C here?
**A.** inactive

**Q.** With COc1cccc2c1C(=O)c1c(O)c3c(c(O)c1C2=O)C[C@](O)(C(C)=O)C[C@H]3O[C@@H]1C[C@@H](N)[C@@H](O)[C@@H](C)O1 as the compound, how does the Potency read?
**A.** active: 0.103 µM

**Q.** Which Potency does the source give for CCCc1cc(=O)oc2cc(OC(C)C(=O)NCC3CCC(C(=O)O)CC3)ccc12 (configuration not stated) here?
**A.** inconclusive [inhibitor, partial curve, poor fit]

**Q.** Which Potency does the source give for O=C(/C=C/c1ccc2c(c1)OCO2)Nc1nc(-c2ccccc2)cs1 here?
**A.** inconclusive [inhibitor, single point]

**Q.** For CS(=O)(=O)Nc1nnc(SCC(=O)Nc2cccc([N+](=O)[O-])c2)s1, which Potency is on record?
**A.** inactive

**Q.** For COCCN1C(=O)CCC1(C)C(=O)NC1CCCC1 (configuration not stated), which Potency is on record?
**A.** inactive

**Q.** For CC(C)C1C(=O)N(Cc2cn(CCC3OCCCO3)nn2)CCS(=O)(=O)N1Cc1ccc(-c2cccc(N(C)C)c2)cc1 (configuration not stated), which Potency is on record?
**A.** inactive

**Q.** With COc1ccc2nc(NC(=O)Nc3ccccc3OC)sc2c1 as the compound, how does the Potency read?
**A.** active: 9.2 µM

**Q.** Which Potency does the source give for CCC(C)OC(=O)c1[nH]c2c(c1C)C(=O)CC(c1ccc(N(C)C)cc1)C2 (configuration not stated) here?
**A.** active: 23.1 µM

**Q.** Which Potency does the source give for CC(C)CN(C1CCS(=O)(=O)C1)S(=O)(=O)c1ccc2ccccc2c1 (configuration not stated) here?
**A.** inactive

**Q.** Which Potency does the source give for CN(C)/C=C1/Sc2ccccc2C1=O here?
**A.** inactive

**Q.** With CC(C)(C)OC(=O)N1CCC(c2c(C(=O)N3CCN(c4ccc(Cl)cc4)CC3)cnn2-c2ccc(F)cc2F)CC1 as the compound, how does the Potency read?
**A.** inconclusive [inhibitor, single point]

**Q.** For Cc1ccc(N2C(=O)C3C(c4ccccc4)(C2=O)C3(c2ccccc2)c2ccccc2)cc1 (configuration not stated), which Potency is on record?
**A.** inconclusive [inhibitor, single point]

**Q.** For COc1ccc(C(=O)NCCSc2ccccc2)cc1OC, which Potency is on record?
**A.** inconclusive [inhibitor, single point]

**Q.** With COc1ccc(C2=NOC(Cn3nc(C(=O)NCc4cccs4)cc3-c3ccccc3)C2)cc1 (configuration not stated) as the compound, how does the Potency read?
**A.** inconclusive [inhibitor, single point]

**Q.** With COc1ccccc1NC(=O)NCc1ccccc1F as the compound, how does the Potency read?
**A.** inconclusive [inhibitor, single point]

**Q.** For CC[C@]12c3[nH]c4cc(-c5ccco5)ccc4c3CCN1C(=O)[C@@H](CC(=O)NCCC1=CCCCC1)C[C@@H]2C(=O)N1CCN(C(=O)C2CC2)CC1, which Potency is on record?
**A.** inconclusive [inhibitor, single point]

**Q.** Which Potency does the source give for Cc1cccc(N(C)C(=O)C2CCCN2S(=O)(=O)c2cccc3nsnc23)c1 (configuration not stated) here?
**A.** inactive
